The other results are listed elsewhere or left out. These are noisy estimates, calculated here from bound and input reads.
Each sequence was assayed against T1, Pho4 (S. cerevisiae) (UniProt P07270) (assay: relative binding free energy (BET-seq); higher = weaker binding). Settings: reference: library average.
T1 sequence: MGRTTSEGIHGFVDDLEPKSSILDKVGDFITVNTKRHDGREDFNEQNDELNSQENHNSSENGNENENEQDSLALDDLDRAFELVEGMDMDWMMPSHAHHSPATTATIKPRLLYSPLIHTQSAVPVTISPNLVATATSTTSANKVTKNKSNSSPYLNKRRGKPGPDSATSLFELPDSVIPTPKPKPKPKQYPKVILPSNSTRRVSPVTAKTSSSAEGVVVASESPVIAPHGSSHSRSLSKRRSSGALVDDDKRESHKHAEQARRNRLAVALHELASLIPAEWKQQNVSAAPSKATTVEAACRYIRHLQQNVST

Row | Sequence | relative binding free energy [kcal/mol]
1 | TATGTCACGTGCAGTG | 0.06
2 | ACGATCACGTGTTGGG | 0.13
3 | CTGTACACGTGTATTT | 0.12
4 | ATTATCACGTGCGTAT | 0
5 | GAGTTCACGTGGTAGC | 0.32
6 | AAATGCACGTGTAGAG | 0.19
7 | TGGACCACGTGGGTGC | -0.26
8 | TTAGACACGTGAATTG | 0.26
9 | TGTGGCACGTGTTCCT | -0.1
10 | TATCTCACGTGTAGTA | 0.18
11 | CGGGGCACGTGTTTGG | -0.1
12 | ATGTGCACGTGTGCAT | 0.02
13 | TTAAGCACGTGTCGGT | -0.01
14 | TAGGTCACGTGATTAT | 0.25
15 | ATGATCACGTGGAGGG | 0.11
16 | GGGGGCACGTGGTTCG | -0.12
17 | GGGAACACGTGGAGTG | 0.03
18 | GAGTGCACGTGGAGGG | -0.02
19 | TCGGACACGTGTTGGG | 0.14
20 | GGAGTCACGTGTGTTT | 0.24
21 | ATGGTCACGTGGCGTG | -0.07

Row | Sequence | relative binding free energy [kcal/mol]
22 | GTGAGCACGTGATTGT | 0.04
23 | ATATTCACGTGGGCCG | 0.13
24 | TGTTCCACGTGGAGGG | 0.09
25 | GTTTACACGTGTAGGC | 0.17
26 | CATTCCACGTGTTGTG | 0.12
27 | TAGTACACGTGAGGTA | 0.09
28 | AATGGCACGTGAATGA | 0.22
29 | GGAGTCACGTGATATT | 0.16
30 | TGTGACACGTGTCTGG | 0.12
31 | ACTGTCACGTGGTTAG | -0.06
32 | AGCGCCACGTGTTTGG | -0.13
33 | GACGTCACGTGTGATG | 0.29
34 | GCAGTCACGTGGGTTG | 0
35 | TATTACACGTGTATTA | 0.03
36 | GTCTGCACGTGTGGAT | 0.05
37 | TCAAACACGTGGGGTG | -0.12
38 | AGTGCCACGTGCGGTC | 0.12
39 | ATGAACACGTGTTGAG | 0.05
40 | TTAGGCACGTGGAGGG | -0.1
41 | ATGTGCACGTGGTAGC | -0.12
42 | TGAAACACGTGGGTGT | -0.12

Row | Sequence | relative binding free energy [kcal/mol]
43 | AGGTTCACGTGCCTGT | 0.09
44 | TAAGCCACGTGGAGGG | -0.15
45 | AGTAGCACGTGTGCTG | -0.06
46 | TAGTCCACGTGTGGTG | 0.04
47 | TGTTTCACGTGTGCAT | 0.23
48 | TGGGTCACGTGGAGCT | 0.02
49 | CGGGGCACGTGCGGCG | -0.29
50 | GTTTTCACGTGGTTCT | 0.27
51 | GTGTTCACGTGGGTAT | 0.22
52 | ATAGACACGTGGTAAT | -0.1
53 | TAATGCACGTGATGCT | 0.14
54 | TGAGTCACGTGACTGG | 0.27
55 | CTCCGCACGTGGGGGG | -0.34
56 | GAGGTCACGTGTGAGA | 0.23
57 | CTGCTCACGTGTAGGT | 0.22
58 | TTGGTCACGTGGGCTC | -0.03
59 | TTAGGCACGTGATGAT | 0.11
60 | TGTAGCACGTGTTAAG | -0.11
61 | GGGCGCACGTGGATAG | 0.06
62 | ATTACCACGTGTTGTT | -0.13
63 | GGTATCACGTGAGATA | 0.38

Reference: the BET-seq Pho4 binding data (Le et al. 2018)
